Experimental data from PubChem BioAssay AID662 (National Center for Advancing Translational Sciences (NCATS), 2007).
Screen size: about 71,000 compounds; about 1,800 (2.5%) were called active. Inconclusive means that the source gave no clear call. Such entries were picked first, then a sample of the others. The call rests on the fitted dose curve; in most records, active means well fitted activation curve with a large enough effect in the signal ratio, with a control signal flat (not every such curve was filed as active); inconclusive means small, poorly fitted or top-dose-only effect, or effect the other way, or a change in a side signal; inactive means flat fitted curve, though single readings scatter; the % refers to the signal ratio. Potencies of inconclusive entries are doubtful fits and often do not repeat.

Assay: Cell signaling CRE-BLA (Fsk stim); on activity change, negative = inhibition: % of control where 0% means no effect
Conditions: CHO CRE-bla reporter (cAMP response element driving beta-lactamase), forskolin EC10, beta-lactamase ratio; activity change, negative = inhibition: at 38.2 µM (top of the series) unless noted
Outline: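 Modulation of forskolin signalling: compounds in titration series added with EC10 NKH 477 to CHO cells carrying a CRE-driven beta-lactamase reporter, 3 h, 37C. CCF4 FRET ratio (460/530 nm, ex 405 nm) gives %activity and AC50.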
Potency means the concentration at half of the fitted maximal effect; tags describe the fitted curve by direction and shape.

Compound	Potency	activity change, negative = inhibition
Oc1ccc(Nc2nc(N3CCCC3)c3ccccc3n2)cc1	inconclusive: 10 µM [rising, single point]	
CC(C)C(c1nnnn1Cc1ccccc1)N1CCc2ccccc2C1 (centres undefined)		inactive: -1.76%
Cc1cc(C)n2c3c(c(C#N)c2n1)CCCC3	inconclusive: 3.98 µM [rising, single point]	
O=C1c2ccccc2C(=O)N1CCc1nc(-c2ccccn2)no1	inconclusive: 20 µM [rising, single point]	
Cc1ccc(C2C(C(=O)c3cc4ccccc4o3)=C(O)C(=O)N2CCN2CCOCC2)o1 (centres undefined)	inconclusive: 3.16 µM [falling, single point]	
Cc1cc(-c2nnc3sc(C4CCCCC4)nn23)n[nH]1		inconclusive: 21.5%
CC(=O)c1cc(-c2ccc(F)cc2)n(CCC(=O)Nc2cc(C)[nH]n2)c1C		inconclusive: -28.9%
CSc1ccccc1NC(=O)c1ccncc1	inconclusive: 0.01 µM [falling, full curve, poor fit]	
CC(O)CNc1nc2ccccc2n1-c1ncnc2sc3c(c12)CCC3 (centres undefined)	inconclusive: 6.31 µM [rising, partial curve]	
CCc1ccc(Nc2nc(N)nc(CSc3nnnn3-c3ccccc3)n2)cc1		inconclusive: 28.7%
CS(=O)(=O)N(CC(=O)N1CCCC1)c1cccc(Cl)c1		inconclusive: -14.6% [at 7.6 µM]
O=C(CSc1n[nH]c(-c2ccco2)n1)N1c2ccccc2Sc2ccccc21	inconclusive: 5.01 µM [rising, partial curve]	
Cc1nc(N2CCN(Cc3ccc4c(c3)OCO4)CC2)c2oc3ccccc3c2n1	active: 10 µM	
OCc1ccccc1OCCOc1ccc(Cl)c2cccnc12	inconclusive: 12.6 µM [rising, single point]	
OC(CNCCc1ccc(Cl)cc1)COCc1ccco1 (centres undefined)		inconclusive: -26.2%
N#Cc1cccc(-c2ccc3ncnc(NCc4cccnc4)c3c2)c1	inconclusive: 10 µM [rising, partial curve]	
Clc1ccc(Cn2ncc3c(N4CCOCC4)ncnc32)cc1	inconclusive: 10 µM [rising, partial curve]	
O=c1c2ccccc2nc2n1CC/C2=C/N1CCN(c2cccc(C(F)(F)F)c2)CC1		inconclusive: 10.3%
O=c1c2ccccc2nnn1CSc1nnc(-c2cccs2)n1Cc1ccccc1		inconclusive: 19%
C=CCOc1ccc2c(c1)c(S(=O)(=O)c1ccc(C)cc1)cn2COC	inconclusive: 5.01 µM [rising, partial curve]	
C[C@H](N)C(=O)OC(C)(C)Cc1ccc(Cl)cc1		inactive: -2.78%
CCn1c(=O)c2cc(C(=O)N3CCN(C(=O)c4ccco4)CC3)sc2c2ccccc21	active: 3.98 µM	
Cc1nc(C)c(C(=O)NCc2ccc(Cl)cc2)o1	inconclusive: 5.01 µM [falling, single point]	
Nc1nnc(-c2cn(-c3ccccc3)nc2-c2ccccc2)o1		inactive: 13.8%
CC(C)c1ccc(O)c(NC(=O)c2cncc(Br)c2)c1		inconclusive: 4.95%
NC1=NCCCC1		inactive: -4.67%
CCOc1ccc(Cl)cc1S(=O)(=O)N1CCCC1		inactive: -19.1%

Compound	Potency	activity change, negative = inhibition
CCOc1ncccc1C(=O)OCCN1C(=O)c2ccccc2C1=O	inconclusive: 12.6 µM [rising, single point]	
O=S(=O)(c1ccccc1)c1nc(-c2ccccc2)oc1NCc1cccnc1		inactive: 8.6%
CCOC(=O)C1=C(c2ccccc2)NC(SCC(=O)Nc2ccc(C)cc2)=C(C#N)C1c1ccco1 (centres undefined)		inactive: 0.93%
COc1ccc(C)cc1NC(=O)C1CC(=O)OC12CCCCC2 (centres undefined)		inactive: -6.06%
CCn1c(SCC(=O)Nc2ccc3c(c2)OCO3)nc2c1c(=O)n(C)c(=O)n2C		inconclusive: 19.1%
CC(=O)Nc1nc(CC(C)C)cc(-c2ccco2)c1C#N		inconclusive: 22.9%
CSCC[C@H](NC(=O)NCc1ccccc1F)C(=O)O		inactive: -18.6%
COC(=O)c1c(NC(=O)C2CC=CCC2C(=O)O)sc(C(N)=O)c1C (centres undefined)		inconclusive: -10.9%
Nn1c(COc2cccc(Br)c2)nnc1SCC(=O)N1CCc2ccccc2C1	inconclusive: 3.98 µM [falling, partial curve]	
COCCn1c(Sc2ccc(C)cc2)nc2c1c(=O)[nH]c(=O)n2C		inactive: 5.44%
CCc1nc(SCc2cccnc2)c2c(=O)n(C)c(=O)n(C)c2n1	active: 2.51 µM	
COc1ccc(Cc2nnc(SCC(=O)c3ccccc3)o2)cc1	inconclusive: 5.01 µM [falling, single point]	
CCS(=O)(=O)N(C)[C@@H]1c2cc(C#N)ccc2OC(C)(C)[C@H]1O		inconclusive: -24.8%
O=C(Nc1ccccc1C(=O)Nc1ccccc1C(=O)NCc1ccco1)c1ccco1	inconclusive: 5.01 µM [rising, partial curve]	
Cc1ccc2cc3c(NC(=O)CC(C)C)nn(C)c3nc2c1	inconclusive: 5.01 µM [rising, partial curve]	
C=C(C)C(=O)OCC(C)O (centres undefined)		inactive: -0.0801%
COc1ccc(-c2nnn(CC(=O)c3ccccc3)n2)cc1OC		inactive: 21.1%
O=c1cnc2cnc(Nc3ccccc3)nc2n1C[C@H]1CCCO1	inconclusive: 2.51 µM [falling, full curve]	
CCOc1cc(C(=O)Nc2cc(=O)n(C)c(=O)n2C)cc(OCC)c1OCC		inconclusive: 21% [at 7.6 µM]
O=C(CCN1c2ccccc2Sc2ccccc21)OCc1nnc(-c2ccccc2)o1		inconclusive: 23.8%
COc1cccc(C(=O)NC2(C(F)(F)F)N=C3SCCN3C2=O)c1 (centres undefined)		inactive: 0.876%
O=C(c1ccncc1)N1CCC2(CCCN(c3ccccc3)C2)CC1		inactive: 0.0932%
CC(=O)C1=C(C)NC(SCC(=O)c2cc(Cl)ccc2Cl)=C(C#N)C1c1ccco1 (centres undefined)		inconclusive: -21.3%
O=c1c(-c2ccccc2)nc2cnc(Oc3ccccc3)nc2n1C1CC1	inconclusive: 20 µM [rising, single point]	
CCOC(=O)c1ccccc1NS(=O)(=O)c1ccccc1		inactive: -7.86%
CNc1ccc(O)cc1		inactive: -4.84%
CCOC(=O)c1cc(-c2ccc3c(c2)OCO3)nc2onc(C)c12	inconclusive: 12.6 µM [rising, partial curve]	
